# Results as given in the supplement of paper PMC9174493.
# Some of the results follow. Single values of this set are uncertain. Values with irradiation are relative to irradiated vehicle.
# What was measured:
# A549-Dual [1] = test: NF-kB reporter (SEAP) activity, viability-corrected, relative to vehicle (fold change vs vehicle); higher = more activation of STING-IRF / NF-kB immune response reporter; settings: 10 µM
# A549-Dual [2] = test: ISRE reporter (Lucia luciferase) activity, viability-corrected, relative to vehicle (fold change vs vehicle); higher = more activation of STING-IRF / NF-kB immune response reporter; settings: 10 µM
# 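For NF-kB reporter (SEAP) activity, viability-corrected, relative to vehicle in this document: viability correction based on the alamar blue assay, with concentrations leaving 10% survival or less dropped.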
Structure (SMILES),NF-kB reporter (A549-Dual [1]; irradiation: 8 Gy/4 fr),NF-kB reporter (A549-Dual [1]; irradiation: none),ISRE reporter (A549-Dual [2]; irradiation: 8 Gy/4 fr),ISRE reporter (A549-Dual [2]; irradiation: none)
COc1cc2ccc(=O)oc2c(OC)c1O [Isofraxidin],0.79,0.958,0.734,0.623
Br.NC(=O)C(c1ccccc1)(c1ccccc1)C1CCN(CCc2ccc3c(c2)CCO3)C1 (centres undefined) [Darifenacin HBr],1.06,0.833,1.26,1.73
CC(OC1OCCN(Cc2nn(P(=O)(O)O)c(=O)[nH]2)C1c1ccc(F)cc1)c1cc(C(F)(F)F)cc(C(F)(F)F)c1.CNCC(O)C(O)C(O)C(O)CO.CNCC(O)C(O)C(O)C(O)CO (centres undefined) [Fosaprepitant dimeglumine salt],0.687,0.712,0.571,1.24
CN1C2CCCC1CC(NC(=O)c1nn(C)c3ccccc13)C2 (centres undefined) [Granisetron],0.891,0.855,1.02,0.813
CCCCCCCCCCC(=O)O [Undecanoic acid],0.771,0.726,0.759,0.67
O=C1CCc2cc(OCCCCc3nnnn3C3CCCCC3)ccc2N1 [Cilostazol],0.63,0.925,0.577,0.604
C/C(=C\CO)CCCC(C)CCCC(C)CCCC(C)C (centres undefined) [Phytol],0.41,0.631,0.509,0.489
Cl.O=C(COc1ccc(Cl)cc1)N1CCN(Cc2ccc3c(c2)OCO3)CC1 [Fipexide hydrochloride],0.539,0.653,0.528,0.611
FC(F)F.N=C(N)NCCCC1NC(=O)C(CCCCN)NC(=O)C(Cc2ccc(O)cc2)NC(=O)C(CC(=O)O)NC(=O)CNC1=O.O=C(O)C(F)(F)F.O=CO (centres undefined) [Cyclo(RGDyK)],1.11,0.738,1.24,0.838
Cc1ncc([N+](=O)[O-])n1CCO [Metronidazole],0.648,0.863,0.684,0.723
COc1ccccc1N1CCN(CCCNc2cc(=O)n(C)c(=O)n2C)CC1.Cl [Urapidil HCl],0.955,0.998,0.921,0.892
CCCC1OC2CC3C4CCC5=CC(=O)C=CC5(C)C4C(O)CC3(C)C2(C(=O)CO)O1 (centres undefined) [Budesonide],0.401,0.708,0.069,0.24
Cl.Nc1c2c(nc3ccccc13)CCCC2 [Tacrine HCl],1.08,0.811,0.731,0.544
CC1OC(OC2C(O)C(OCCc3ccc(O)c(O)c3)OC(COC3OC(CO)C(O)C(O)C3O)C2OC(=O)/C=C/c2ccc(O)c(O)c2)C(O)C(O)C1O (centres undefined) [Echinacoside],0.97,1.31,0.149,0.372
CC(C)c1nc(N(C)S(C)(=O)=O)nc(-c2ccc(F)cc2)c1/C=C/C(O)CC(O)CC(=O)O (centres undefined) [Rosuvastatin],0.915,0.927,0.979,1.02
Cn1nnnc1SCC1=C(C(=O)[O-])N2C(=O)C(NC(=O)C(OC=O)c3ccccc3)C2SC1.[Na+] (centres undefined) [Cefamandole nafate],0.973,1.07,0.893,0.896
CCN1CC(CCN2CCOCC2)C(c2ccccc2)(c2ccccc2)C1=O (centres undefined) [Doxapram],0.763,0.711,0.686,0.496
Cc1c(O)c(=O)ccn1C [Deferiprone],1.44,0.825,1.35,0.853

Structure (SMILES),NF-kB reporter (A549-Dual [1]; irradiation: 8 Gy/4 fr),NF-kB reporter (A549-Dual [1]; irradiation: none),ISRE reporter (A549-Dual [2]; irradiation: 8 Gy/4 fr),ISRE reporter (A549-Dual [2]; irradiation: none)
CCc1ccc(C(=O)C(C)CN2CCCCC2)cc1.Cl (centres undefined) [Eperisone hydrochloride],1.58,0.824,0.329,0.783
CC(=O)OC1C[C@H](C)CCC1C(C)C (stereo partly drawn) [(1R)-(-)-Menthyl acetate],0.852,0.793,0.713,0.591
CC(=O)N1CCN(c2ccc(OCC3COC(Cn4ccnc4)(c4ccc(Cl)cc4Cl)O3)cc2)CC1 (centres undefined) [Ketoconazole],0.778,0.814,0.699,0.727
O=C1c2ccccc2C(=O)C1c1ccccc1 [Phenindione],1.19,0.952,0.967,0.712
CC(C)(S)C(N)C(=O)O (centres undefined) [Penicillamine],1.04,0.97,0.986,0.831
CCOC(=O)C1=CC(OC(CC)CC)C(NC(C)=O)C(N)C1.O=P(O)(O)O (centres undefined) [Oseltamivir Phosphate],0.826,1.03,0.796,1.01
CN(C)C1C(O)=C(C(N)=O)C(=O)C2(O)C(O)=C3C(=O)c4c(O)ccc(Cl)c4C(O)C3CC12.Cl (centres undefined) [Demeclocycline HCl],0.606,0.903,0.947,1.52
CC12CCC(=O)C=C1CCC1C2C(=O)CC2(C)C1CCC2(O)C(=O)CO (centres undefined) [Cortisone],0.748,0.553,0.73,0.505
COC1C(OC(N)=O)C(O)C(Oc2ccc3c(O)c(NC(=O)c4ccc([O-])c(CC=C(C)C)c4)c(=O)oc3c2C)OC1(C)C.[Na+] (centres undefined) [Novobiocin Sodium],0.874,1.09,0.545,0.481
CCC(c1ccccc1)c1c(O)c2ccccc2oc1=O (centres undefined) [Phenprocoumon],0.53,0.953,0.314,0.393
CN(C)CCCN1c2ccccc2Sc2ccc(Cl)cc21 [Chlorpromazine],1.1,1.24,1.01,1.89
O=C1[N-]S(=O)(=O)c2ccccc21.[Na+] [Saccharin sodium salt hydrate],0.939,0.724,1.19,0.86
CCC(C)CCCC(=O)NC(CCN)C(=O)NC(C(=O)NC(CCN)C(=O)NC1CCNC(=O)C(C(C)O)NC(=O)C(CCN)NC(=O)C(CCN)NC(=O)C(CC(C)C)NC(=O)C(CC(C)C)NC(=O)C(CCN)NC1=O)C(C)O.CCC(C)CCCC(=O)NC(CCN)C(=O)NC(C(=O)NC(CCN)C(=O)NC1CCNC(=O)C(C(C)O)NC(=O)C(CCN)NC(=O)C(CCN)NC(=O)C(CC(C)C)NC(=O)C(CC(C)C)NC(=O)C(CCN)NC1=O)C(C)O.O=S(=O)(O)O.O=S(=O)(O)O.O=S(=O)(O)O.O=S(=O)(O)O.O=S(=O)(O)O (centres undefined) [Colistin Sulfate],1.05,1.11,0.933,1.23
CC(=O)NS(=O)(=O)c1ccc(NC(=O)c2ccccc2C(=O)O)cc1 [Phthalylsulfacetamide],0.904,0.785,0.831,0.591
Cc1cccc(C)c1NC(=O)C1CCCCN1C.Cl (centres undefined) [Mepivacaine HCl],0.784,1.04,0.939,0.989
Nc1ncnc2c1ncn2C1CC(O)C(CO)O1.O (centres undefined) [2'-Deoxyadenosine monohydrate],0.9,0.566,0.91,0.632
CNCC(O)c1cccc(O)c1.Cl (centres undefined) [Phenylephrine HCl],0.768,0.884,0.935,0.819
CC1NC(=O)C(N)CNC(=O)C(C2CCNC(N)=N2)NC(=O)C(=CNC(N)=O)NC(=O)C(CNC(=O)CC(N)CCCN)NC1=O.O=S(=O)(O)O (centres undefined) [Capreomycin Sulfate],1.01,0.874,1.02,1.01
